Measurements: PMC7739268 (Journal of molecular biology, 2016)

Molecular target: T1, Recombinant human BMP-6 (human, UniProt P22004 375-513)
T1 sequence (looked up): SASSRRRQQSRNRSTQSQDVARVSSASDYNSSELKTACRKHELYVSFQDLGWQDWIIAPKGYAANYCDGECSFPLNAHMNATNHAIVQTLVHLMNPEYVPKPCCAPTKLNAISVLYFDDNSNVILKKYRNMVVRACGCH
Assay: SPR

binding result: binds
B1: ActRIIA-Fc (Fc fusion)
chain: not shown
